Whole data set: some 33,000 sequences, median “E-score (-0.5 to 0.5)” near -0.035, cut for the highest 2% near 0.35. The list shows a part of the results.
Molecular target: T1, Pdr3 (UniProt P33200)
T1 sequence: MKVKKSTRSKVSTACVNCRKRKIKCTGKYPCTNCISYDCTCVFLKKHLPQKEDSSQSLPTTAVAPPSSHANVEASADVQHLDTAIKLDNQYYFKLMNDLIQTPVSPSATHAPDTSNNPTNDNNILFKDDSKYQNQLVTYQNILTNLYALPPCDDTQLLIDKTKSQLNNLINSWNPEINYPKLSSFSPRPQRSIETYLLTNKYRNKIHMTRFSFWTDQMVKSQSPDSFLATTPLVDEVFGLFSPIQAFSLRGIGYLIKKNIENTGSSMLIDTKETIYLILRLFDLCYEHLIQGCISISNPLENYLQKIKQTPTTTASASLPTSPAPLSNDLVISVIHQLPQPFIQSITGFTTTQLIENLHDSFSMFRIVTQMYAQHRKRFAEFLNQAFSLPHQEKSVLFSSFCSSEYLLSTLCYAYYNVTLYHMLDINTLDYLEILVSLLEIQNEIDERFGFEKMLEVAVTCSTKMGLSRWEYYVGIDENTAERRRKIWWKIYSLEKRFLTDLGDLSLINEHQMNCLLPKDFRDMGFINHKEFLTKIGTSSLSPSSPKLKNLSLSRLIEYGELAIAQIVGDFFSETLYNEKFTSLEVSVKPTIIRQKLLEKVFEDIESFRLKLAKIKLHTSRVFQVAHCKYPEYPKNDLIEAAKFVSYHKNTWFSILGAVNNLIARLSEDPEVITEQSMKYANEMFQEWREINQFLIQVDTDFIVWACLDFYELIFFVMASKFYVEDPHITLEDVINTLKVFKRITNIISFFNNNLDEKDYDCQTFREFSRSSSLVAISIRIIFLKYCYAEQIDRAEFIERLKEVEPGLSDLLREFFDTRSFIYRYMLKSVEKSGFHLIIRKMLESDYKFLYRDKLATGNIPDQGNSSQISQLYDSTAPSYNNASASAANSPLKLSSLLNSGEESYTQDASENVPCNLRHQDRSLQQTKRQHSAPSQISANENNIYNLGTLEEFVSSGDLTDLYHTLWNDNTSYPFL
Test: PBM E-score (8-mer binding enrichment) (E-score (-0.5 to 0.5)); higher = stronger / more preferred TF binding; most listed sequences are background and not binding sites
Conditions: protein concentration: 200 nM; construct: GST-full length
Method in brief: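 Detection of bound protein used fluorescent anti-GST, with scans normalised by masliner. The proteins were GST-tagged yeast transcription factors applied at about 100-200 nM to universal all-10-mer Agilent arrays made double-stranded by primer extension. Each ungapped eight-base word, pooled with its reverse complement, was scored with an E-score from the Universal PBM Analysis Suite.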

First: AGTGGATC
Second: ATATGGCG
The “PBM E-score” value of the first is higher: 0.206 for the first, 0.0995 for the second.

Going from GGTCAAGA to CAGGGTAA, the “PBM E-score” value rises from -0.197 to -0.101.

Compared with CCTACTAG, CAGGATCA is higher in “PBM E-score” value: -0.221 for the first, -0.0271 for the second.

Compared with AGCACACG, AAAATAAC is higher in “PBM E-score” value: -0.219 for the first, -0.13 for the second.

Compared with CACGTGAA, GGCTACTA is lower in “PBM E-score” value: -0.0583 for the first, -0.0598 for the second.

First: CTCGATGC
Second: GCCGAGAC
The “PBM E-score” value of the first is lower: -0.0716 for the first, 0.16 for the second.

Going from CACTCCGC to GCACTCCA, the “PBM E-score” value falls from 0.243 to -0.0427.

Compared with ACTTTCAG, CATATCTC is higher in “PBM E-score” value: -0.184 for the first, -0.00388 for the second.

First: ACGATCAT
Second: GGTACGAC
The “PBM E-score” value of the first is higher: -0.0852 for the first, -0.12 for the second.

First: CATCCCAA
Second: CAGACAGA
The “PBM E-score” value of the first is higher: -0.0143 for the first, -0.0799 for the second.

First: CATCTTGG
Second: CATCGGCA
The “PBM E-score” value of the first is lower: -0.0743 for the first, 0.123 for the second.

Going from AGTGATAT to CGAAGTAC, the “PBM E-score” value rises from 0.0166 to 0.107.

Going from GAAGGGGC to TGAGAACA, the “PBM E-score” value rises from -0.256 to -0.162.

Going from GGATTACA to ACACACAC, the “PBM E-score” value falls from -0.0427 to -0.191.

First: CGAGAATA
Second: ACTTATAG
The “PBM E-score” value of the first is higher: 0.0747 for the first, -0.0963 for the second.

First: AAGCGAGT
Second: ATTAAAAG
The “PBM E-score” value of the first is higher: 0.198 for the first, -0.0236 for the second.

Going from ATAAAGAC to ATCCGCTC, the “PBM E-score” value rises from -0.171 to 0.307.

First: AAACGCGA
Second: GTCGCGTA
The “PBM E-score” value of the first is higher: -0.0544 for the first, -0.118 for the second.

Going from ATCGCCAT to AGGTGCAA, the “PBM E-score” value falls from 0.105 to -0.0808.

First: GTCGAGAA
Second: GGAAATCA
The “PBM E-score” value of the first is lower: -0.173 for the first, 0.195 for the second.

First: CCCCAAAG
Second: ATGGACAG
The “PBM E-score” value of the first is lower: -0.181 for the first, -0.129 for the second.

Going from ATATCTCC to GTGAAGAA, the “PBM E-score” value falls from 0.216 to -0.0697.

Compared with AGGGCGGG, AGACCAAT is lower in “PBM E-score” value: 0.25 for the first, -0.0713 for the second.

Going from TACTTGAA to GCAGTACA, the “PBM E-score” value falls from -0.203 to -0.206.

First: CAACGAAG
Second: AAGGCCAG
The “PBM E-score” value of the first is lower: -0.188 for the first, -0.0965 for the second.

Compared with AGCGTACT, CTACCAAG is higher in “PBM E-score” value: -0.119 for the first, -0.0913 for the second.

Compared with ATATGTTG, CCGTCCGA is higher in “PBM E-score” value: -0.0438 for the first, 0.232 for the second.

First: ACACGTCC
Second: CATTGACG
The “PBM E-score” value of the first is higher: -0.0777 for the first, -0.138 for the second.

Going from CCGTAGCA to GAACGAAA, the “PBM E-score” value rises from -0.0556 to -0.035.

Compared with AGGTTAAC, CCAGTGGG is higher in “PBM E-score” value: -0.107 for the first, -0.0745 for the second.

First: GGTACTTA
Second: ATAGAGTC
The “PBM E-score” value of the first is lower: -0.0528 for the first, -0.0137 for the second.

Going from ACCTTTGC to AAATCGCT, the “PBM E-score” value rises from -0.146 to -0.0798.

Compared with CAGTAGCC, AAGATCGC is higher in “PBM E-score” value: -0.204 for the first, -0.0622 for the second.

First: CCGGGAAG
Second: AGAGTATG
The “PBM E-score” value of the first is higher: 0.359 for the first, -0.141 for the second.

Compared with CGATACAG, CCAATTTC is higher in “PBM E-score” value: -0.0304 for the first, 0.202 for the second.

Going from CGACAACG to AACTGCGG, the “PBM E-score” value rises from 0.113 to 0.258.

First: ATTAACGA
Second: AATAGAGG
The “PBM E-score” value of the first is higher: 0.0706 for the first, -0.0999 for the second.

First: CCGCCGAG
Second: ATCTTACG
The “PBM E-score” value of the first is higher: 0.326 for the first, 0.00222 for the second.

Compared with AAGTTTGG, CTGGAGGC is higher in “PBM E-score” value: -0.0671 for the first, -0.0557 for the second.

Compared with AGTTTATC, CTTTGCCA is lower in “PBM E-score” value: 0.0974 for the first, -0.108 for the second.

ATTGCGGC and ATTATCTG are the same in “PBM E-score” value: 0.0253 for the first, 0.0253 for the second.

Compared with ACCGCAAA, ATTCGGGA is higher in “PBM E-score” value: -0.0146 for the first, 0.185 for the second.

Going from CCATCGTA to AATTCTTA, the “PBM E-score” value rises from -0.0764 to -0.0202.

Compared with CCCGGGAA, GACAGACA is lower in “PBM E-score” value: 0.443 for the first, 0.221 for the second.

First: AACATGTC
Second: CAGTCCTA
The “PBM E-score” value of the first is higher: 0.00625 for the first, -0.243 for the second.

Going from CAGCGATG to GAGTTGAC, the “PBM E-score” value rises from -0.0711 to 0.0303.

Going from GAGCCAAC to ACCGGACT, the “PBM E-score” value rises from -0.189 to 0.285.

Compared with AACTAGGC, CGCTTCCG is higher in “PBM E-score” value: -0.16 for the first, 0.419 for the second.

First: AGTTCCCG
Second: AGCAAGAA
The “PBM E-score” value of the first is higher: 0.299 for the first, -0.0735 for the second.

First: GGGTTTGA
Second: ATTTCGGA
The “PBM E-score” value of the first is lower: -0.0398 for the first, 0.327 for the second.

First: GTGTGTCA
Second: GGACACGA
The “PBM E-score” value of the first is lower: -0.0981 for the first, 0.0948 for the second.

Compared with CATCAGAA, GAAACCCC is higher in “PBM E-score” value: -0.165 for the first, 0.0513 for the second.

Going from AGGGCTGC to TACACTAA, the “PBM E-score” value falls from 0.0386 to -0.177.

Going from ACATCACG to ACCGCCCC, the “PBM E-score” value rises from -0.233 to 0.148.

Compared with ATGAGATG, CCCCGCTC is higher in “PBM E-score” value: -0.0139 for the first, 0.0129 for the second.

Compared with ACGGTCCA, CGATCAAC is lower in “PBM E-score” value: 0.0173 for the first, -0.143 for the second.

Going from GCTATATA to GTCTGCAC, the “PBM E-score” value falls from -0.0719 to -0.141.

First: AGCTTAAG
Second: AAAGAGCC
The “PBM E-score” value of the first is higher: -0.0452 for the first, -0.113 for the second.

Compared with ATGGCCTG, CTTTGCTC is lower in “PBM E-score” value: 0.0418 for the first, -0.0557 for the second.

Compared with TAGCTGAA, GGAGACTA is higher in “PBM E-score” value: -0.0744 for the first, -0.0407 for the second.

First: ATTTCATG
Second: GATATGGC
The “PBM E-score” value of the first is lower: -0.143 for the first, -0.0279 for the second.

Compared with CCGGGAGG, CGAAATGA is lower in “PBM E-score” value: 0.334 for the first, 0.188 for the second.

First: CAGAAGGC
Second: CTGTTGGA
The “PBM E-score” value of the first is higher: 0.0006 for the first, -0.131 for the second.

Going from AGACAGAA to ATTGAGTA, the “PBM E-score” value rises from -0.122 to 0.0495.

Going from GGAAGAGA to CCGCCAGC, the “PBM E-score” value falls from 0.207 to 0.105.

Compared with GAACGTCA, CGGTATTA is higher in “PBM E-score” value: -0.175 for the first, 0.248 for the second.

Compared with ACAGATGG, AGGATGAC is lower in “PBM E-score” value: -0.0979 for the first, -0.298 for the second.

Going from ATGGTCGA to ACACGTGT, the “PBM E-score” value falls from -0.0615 to -0.222.

First: AGAGTCAT
Second: GCGCGTTA
The “PBM E-score” value of the first is lower: -0.255 for the first, 0.0926 for the second.

First: AGCGTCAA
Second: ATTGACGC
The “PBM E-score” value of the first is lower: -0.111 for the first, -0.11 for the second.

Compared with ACTTCGAA, ACCCCCAC is lower in “PBM E-score” value: -0.241 for the first, -0.319 for the second.

Going from TAAGGGGA to ATAACAAT, the “PBM E-score” value rises from -0.12 to -0.054.

Compared with ATCATCGG, AAGGACCA is lower in “PBM E-score” value: 0.276 for the first, -0.0737 for the second.

Going from ATATCGCA to AGCGGGAT, the “PBM E-score” value rises from -0.0575 to 0.237.

Going from CAGTATCC to CGGATAAC, the “PBM E-score” value rises from 0.0371 to 0.333.

First: GAACCGAC
Second: GGGCGCAC
The “PBM E-score” value of the first is higher: 0.167 for the first, 0.0538 for the second.

Compared with CTCCCTAC, CGTGGTCA is higher in “PBM E-score” value: -0.251 for the first, -0.0865 for the second.

Compared with ATAAAATG, ACTCTGGC is lower in “PBM E-score” value: 0.0593 for the first, -0.0062 for the second.

Compared with AATATTAC, CGTTCGGC is higher in “PBM E-score” value: 0.134 for the first, 0.171 for the second.

First: CGTAACTA
Second: AAAAGAGC
The “PBM E-score” value of the first is higher: -0.12 for the first, -0.248 for the second.

Compared with AGTATATC, ATGTAGGA is lower in “PBM E-score” value: -0.034 for the first, -0.158 for the second.

Going from ATCGACAT to CGGTTTTC, the “PBM E-score” value rises from 0.0562 to 0.188.

Going from ACCTCATC to CGGGCTTA, the “PBM E-score” value rises from 0.00577 to 0.0629.

Compared with CGGACCCG, GCTGCACC is lower in “PBM E-score” value: 0.392 for the first, 0.0174 for the second.

Compared with CGCATTAC, CTACCATC is lower in “PBM E-score” value: 0.135 for the first, -0.0753 for the second.

Going from AGAGCTTA to ATCTCATA, the “PBM E-score” value falls from -0.0903 to -0.113.

— the supplement of paper PMC3334620
